Experimental data taken from PMC3584131.
Results are given in words; binding and its absence hold for the method and conditions named. For some assays here: Binding seen in cells or lysates may run through a third protein. Some results given as binding are weak or reduced against the parent protein; the word gives no strength. Where a sequence is shown, tags or fusion partners need not be part of it.

Sequences of proteins named here, by UniProt entry; tags and fusion partners are left off.
UniProt Q9QZS3: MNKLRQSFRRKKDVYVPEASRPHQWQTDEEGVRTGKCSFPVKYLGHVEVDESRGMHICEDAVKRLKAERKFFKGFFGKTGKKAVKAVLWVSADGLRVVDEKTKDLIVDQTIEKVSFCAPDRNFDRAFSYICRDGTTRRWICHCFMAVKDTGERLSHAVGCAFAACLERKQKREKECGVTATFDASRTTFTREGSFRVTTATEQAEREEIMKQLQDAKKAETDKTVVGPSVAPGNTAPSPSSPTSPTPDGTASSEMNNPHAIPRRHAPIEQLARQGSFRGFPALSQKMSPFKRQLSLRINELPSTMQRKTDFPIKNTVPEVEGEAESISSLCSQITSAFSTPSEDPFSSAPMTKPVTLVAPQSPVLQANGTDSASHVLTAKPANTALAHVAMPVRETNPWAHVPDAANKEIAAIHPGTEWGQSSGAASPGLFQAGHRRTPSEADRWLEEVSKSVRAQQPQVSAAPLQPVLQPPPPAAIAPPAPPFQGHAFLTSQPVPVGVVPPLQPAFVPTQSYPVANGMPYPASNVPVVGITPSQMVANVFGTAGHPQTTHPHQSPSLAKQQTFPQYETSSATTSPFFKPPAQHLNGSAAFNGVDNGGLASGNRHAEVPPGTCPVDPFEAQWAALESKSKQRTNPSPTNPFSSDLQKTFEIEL

Columns and labels:
[1] = biological target: T1, myc-TBC1D15 (expressed in HEK-293A cells) (murine) (UniProt Q9CXF4); assay: pull-down; competition: fixed Flag-Numb-3A first incubated alone or with increasing His6-p53 (1.0-20 nM), then mixed with myc-TBC1D15 agarose or BSA-agarose; extensive washing; immunoblot; both purified
T1 sequence: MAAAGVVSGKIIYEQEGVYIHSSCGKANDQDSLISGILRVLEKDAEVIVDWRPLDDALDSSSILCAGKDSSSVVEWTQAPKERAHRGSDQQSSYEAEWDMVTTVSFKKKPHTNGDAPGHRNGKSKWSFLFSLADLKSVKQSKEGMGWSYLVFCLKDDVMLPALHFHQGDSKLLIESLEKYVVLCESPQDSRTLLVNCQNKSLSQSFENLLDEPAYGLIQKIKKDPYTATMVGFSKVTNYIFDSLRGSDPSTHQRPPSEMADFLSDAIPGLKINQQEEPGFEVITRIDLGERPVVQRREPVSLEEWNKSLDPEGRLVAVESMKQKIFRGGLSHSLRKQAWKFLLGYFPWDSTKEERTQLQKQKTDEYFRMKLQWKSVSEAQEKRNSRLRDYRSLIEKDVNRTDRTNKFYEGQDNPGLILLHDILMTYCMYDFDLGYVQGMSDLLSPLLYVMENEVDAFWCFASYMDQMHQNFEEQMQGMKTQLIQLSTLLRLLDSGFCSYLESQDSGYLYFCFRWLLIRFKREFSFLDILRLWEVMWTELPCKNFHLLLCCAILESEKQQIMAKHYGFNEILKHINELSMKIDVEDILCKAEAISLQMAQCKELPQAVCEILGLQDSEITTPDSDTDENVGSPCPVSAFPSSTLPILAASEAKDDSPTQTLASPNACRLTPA

[2] = biological target: T2, myc-TBC1D15 (expressed in TISCs) (murine) (UniProt Q9CXF4); assay: co-IP; cytoplasmic lysates of transfected murine TISCs; immunoprecipitation with anti-Numb agarose or anti-myc antibody, 4°C; five washes in Buffer W (300 mM NaCl, 0.5% triton X-100); immunoblot
T2 sequence: T1 sequence

Substance | binding [1] | binding [2]
His6-p53 (from UniProt P04637 1-393) | no binding (tested: 1.0–20 nM) | 
Flag-Numb (expressed in TISCs) (from UniProt Q9QZS3 1-653) |  | binds
